Article PMC4336329 (PLoS ONE, 2015)
Screen size: about 310,000 compounds; about 2,200 (0.71%) showed an effect of 50% or more. The effect is printed as a negative number. The list shows a part of the results.

biological target: human ether-à-go-go-related gene (hERG) potassium channel (human, UniProt Q12809); test: primary screen, population patch clamp on CHO cells stably expressing hERG
Sequence (Q12809 whole entry, looked up): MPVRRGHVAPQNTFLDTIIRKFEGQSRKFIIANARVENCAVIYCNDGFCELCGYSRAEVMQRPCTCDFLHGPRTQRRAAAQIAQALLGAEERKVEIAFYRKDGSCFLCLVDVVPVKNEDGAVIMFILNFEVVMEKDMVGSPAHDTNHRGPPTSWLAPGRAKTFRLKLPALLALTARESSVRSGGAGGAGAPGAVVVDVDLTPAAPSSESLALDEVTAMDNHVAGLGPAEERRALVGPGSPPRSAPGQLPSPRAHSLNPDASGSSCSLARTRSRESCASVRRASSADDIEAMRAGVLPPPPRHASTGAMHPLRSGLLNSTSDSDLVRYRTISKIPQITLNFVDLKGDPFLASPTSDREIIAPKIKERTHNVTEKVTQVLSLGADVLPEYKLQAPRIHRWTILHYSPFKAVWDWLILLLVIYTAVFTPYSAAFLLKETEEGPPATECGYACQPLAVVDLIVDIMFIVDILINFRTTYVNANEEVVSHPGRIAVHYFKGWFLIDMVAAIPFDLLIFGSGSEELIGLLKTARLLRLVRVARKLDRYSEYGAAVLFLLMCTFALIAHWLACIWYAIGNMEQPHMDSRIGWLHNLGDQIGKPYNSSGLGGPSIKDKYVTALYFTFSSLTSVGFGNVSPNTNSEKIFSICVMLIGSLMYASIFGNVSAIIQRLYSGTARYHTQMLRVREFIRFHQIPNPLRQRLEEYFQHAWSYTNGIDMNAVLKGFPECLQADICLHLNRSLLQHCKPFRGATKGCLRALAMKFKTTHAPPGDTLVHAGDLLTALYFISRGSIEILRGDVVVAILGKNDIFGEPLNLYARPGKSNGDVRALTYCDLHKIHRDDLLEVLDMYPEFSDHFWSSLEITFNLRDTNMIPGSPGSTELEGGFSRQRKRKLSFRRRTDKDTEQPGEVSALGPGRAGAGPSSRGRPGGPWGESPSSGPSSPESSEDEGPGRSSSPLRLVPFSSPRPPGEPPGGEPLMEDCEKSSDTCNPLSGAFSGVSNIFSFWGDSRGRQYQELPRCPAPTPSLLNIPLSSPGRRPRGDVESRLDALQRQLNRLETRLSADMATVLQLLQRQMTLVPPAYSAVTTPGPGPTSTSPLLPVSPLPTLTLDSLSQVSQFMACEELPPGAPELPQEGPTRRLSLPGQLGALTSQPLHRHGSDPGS

SMILES	hERG current change (%, negative = inhibition) at 1uM
Cc1cc(C)nc(N2CCC(C(=O)NC3CCCc4ccccc43)CC2)n1 (centres unmarked)	7.93%
COc1ccc(N2C(=O)/C(=C/c3cccs3)NC2=S)cc1	11.7%
Cc1ccccc1CNC(=O)C(=O)Nc1nccs1	17.9%
COC(=O)Nc1nc2ccc(C(=O)c3cccs3)cc2[nH]1	0.619%
Cc1cccc(Nc2nnc(SCC(=O)NC(=O)CN3CCCC3=O)s2)c1	13.7%
COc1ccc(Cl)cc1NC(=O)c1[nH]c(C)c(C(C)=O)c1C	7.01%
S=c1[nH]nc(-c2ccncc2)n1/N=C/c1ccccc1Cl	17.2%
CCOC(=O)c1c(C)n(C)c2ccc(OC)c(NS(=O)(=O)c3ccc(Cl)s3)c12	5.59%
CC1=C(C(=O)Nc2ccccc2C)C2(CCCC2)C(C(N)=O)C(=O)N1 (centres unmarked)	8.59%
Nc1nnc(/C=C/c2ccccc2)s1	21.5%
COc1ccc(Cl)cc1-c1nc(SCC(=O)NC(C)(C)C)n[nH]1	6.75%
CCc1cc(=O)n2c([nH]c3ccccc32)c1C#N	16%
CCOC(=O)N1CCN(C(=O)CCSc2ccc(C)cc2)CC1	0.89%
CCCCOP(=O)(OCCCC)C(O)c1ccc(Br)cc1 (centres unmarked)	8.37%
COCCn1c(=N)c(C(=O)NCCc2ccccc2)cc2c(=O)n3cccc(C)c3nc21	-86.1%
CC(=O)c1c(C)[nH]c(C(=O)N2CC(C)CC(C)C2)c1C (centres unmarked)	12.2%
COc1ccccc1CN1CC(C(=O)NCCN(C)CCc2ccccc2)CCC1=O (centres unmarked)	-32.1%
COC(=O)c1[nH]c2ccc(Cl)cc2c1NC(=O)CN1CCc2cc(OC)c(OC)cc2C1	12.9%
CCC1=NN(C(=O)c2ccc([N+](=O)[O-])cc2)C(O)(c2ccccc2)C1 (centres unmarked)	6.13%
COc1ccc(N=Nc2cc(C)ccc2O)cc1	11.1%
CCSc1nnc(CNC(=O)C23CC4CC(CC(C4)C2)C3)n1C1CCCCC1	14.2%
O=C(CSc1ccc([N+](=O)[O-])cn1)Nc1ccc(N2CCOCC2)cc1	6.63%
Cc1ccsc1C1CC(=O)NC2=C1C(=O)CC(C)(C)C2 (centres unmarked)	14.4%

SMILES	hERG current change (%, negative = inhibition) at 1uM
Cc1cc(-c2nnc(SCC(=O)Nc3nc(-c4ccc(Cl)cc4)cs3)o2)no1	14.9%
CC1CC(=O)NN=C1c1ccc(N(C)C)c([N+](=O)[O-])c1 (centres unmarked)	0.945%
O=C(NCc1ccccc1)C(c1ccncc1)N(C(=O)c1csnn1)c1cccc(F)c1 (centres unmarked)	8.92%
COc1ccc(C(=O)NCCN2CCN(C(=O)c3ccc(OC)c(OC)c3)CC2)cc1OC	13.2%
CN(C)c1ccc(C(=O)c2ccc(N(C)C)c(N)c2)cc1N	-1.18%
CCn1cc(CN2CCN(CC(C)(C)C)C(CCO)C2)c2ccccc21 (centres unmarked)	11.3%
Cc1ccc(C(=O)/C=C/Nc2ccccc2C(N)=O)o1	0.319%
CCSC1=NSC2=NC(=O)/C(=C\c3coc4ccccc4c3=O)C(=N)N12	4.51%
Cc1ccc(C(=O)Nc2cccc(N(C)S(C)(=O)=O)c2)cc1S(=O)(=O)Nc1ccccc1	0.389%
O=C(C1CCN(S(=O)(=O)c2ccc(Br)cc2)CC1)N1CCOCC1	-1.91%
COc1cccc(NC(=O)[C@@H]2CCCN2C(=O)C2CCN(S(=O)(=O)c3ccc(C)cc3)CC2)c1	1.83%
O=C(CCNS(=O)(=O)c1ccc2[nH]c(=O)oc2c1)Nc1ccccc1	10.5%
CC1CCCCN1S(=O)(=O)c1ccc(C(=O)Nc2ccccc2-c2nc3ccccc3s2)cc1 (centres unmarked)	12.1%
Cc1ncc(CO)c(/C=N/NC(=S)Nc2ccc(F)cc2)c1O	18.4%
O=C1Nc2ccccc2N(O)N1c1ccc(S(=O)(=O)N2CCCCCC2)cc1	7.53%
O=C(c1ccc2ccccc2c1)N1CCc2ccccc21	12.4%
CC(C)(C)n1nnnc1C(c1cccnc1)N1CCN(c2cccc(C(F)(F)F)c2)CC1.Cl (centres unmarked)	2.7%
Cc1ccccc1C(=O)NCC(=O)O	9.67%
Cc1ccc2c(c1)CCCN2C(=O)CCc1nc2ccccc2c(=O)[nH]1	3.44%
COc1ccc(NC(=O)N2CCCc3cc(C)ccc32)c(OC)c1	14.5%
C/C(=N\NC(=O)c1c[nH]c2ccccc12)c1ccc2c(c1)OCO2	8.18%
Cc1ccc(CNC(=O)COc2ccc(C)nc2[N+](=O)[O-])cc1	-3.03%
COc1ccccc1N1CCN(CC(=O)Nc2ccccc2C(=O)NCCc2ccccc2)CC1	37.6%

SMILES	hERG current change (%, negative = inhibition) at 1uM
C=CCN(C(=O)Nc1ccc(OC)cc1)c1nnc(-c2ccncc2)s1	-2.3%
O=C(OCc1ccccc1)c1ccc(Br)o1	0.851%
Cc1ccc(S(=O)(=O)N2CCC(=O)N(CCOCc3ccc(Cl)cc3)CC2)cc1	2.76%
O=C(O)c1cc(NCc2ccccc2)ccc1N1CCOCC1	2.9%
COc1ccc2c(c1)C(NC(C)=O)C(=O)N2CCc1ccccc1 (centres unmarked)	3.02%
Cc1ccc(-c2nnc(SCC(=O)Nc3cccc(C(=O)N4CCOCC4)c3)n2C)cc1	-2.71%
Cc1sc2nc[nH]c(=O)c2c1-c1ccc(Cl)cc1	13.8%
CCCC(c1nnnn1Cc1ccco1)N1CCC(C(N)=O)CC1.Cl (centres unmarked)	-4.52%
COC(=O)c1c(C)oc(C)c1S(=O)(=O)N1CCCCC1	8.55%
Cn1cccc1CNC(=S)Nc1cc(F)cc(F)c1	14.4%
O=C(CN(C(=O)Cn1nnc(-c2cccs2)n1)c1ccc2c(c1)OCCO2)NCC1CCCO1 (centres unmarked)	-3.21%
CC1(c2ccc3c(c2)OCCO3)NC(=O)N(CC(=O)c2ccc[nH]2)C1=O (centres unmarked)	7.08%
O=C(/C=C/c1ccc(Br)cc1)N1CCN(Cc2ccccc2)CC1	11%
CC#CCCC(=O)N1C=Cc2ccccc2C1C#N (centres unmarked)	0.723%
COc1ccc(C(=O)N2CCC(=O)N(C(CO)Cc3ccccc3)CC2)cc1 (centres unmarked)	1.01%
COc1cccc(CN(C)C(=O)C23CC4CC(CC(NC(C)=O)(C4)C2)C3)c1OC	1.91%
Nc1nn(-c2ccccc2)c(N)c1N=Nc1cccc(F)c1	18.7%
O=C(NC(=S)Nc1cc([N+](=O)[O-])ccc1O)C1CC1	4.72%
CCN1C(=O)c2cccc3c(S(=O)(=O)Nc4ccc(OC)cc4OC)ccc1c23	1.86%
CCCOC(=O)c1c(NC(=O)/C=C/c2cnn(C)c2C)sc(C(=O)OC)c1C	12.5%
CCCOc1ccc(-c2c(C(=O)N/N=C/c3ccsc3)nnn2-c2nonc2N)cc1	14.1%
Cc1cccc2nc(-c3cccnc3)c(Nc3ccccc3)n12	1.54%
CCOc1ccccc1NC(=O)c1ccc(NC(=O)c2ccco2)cc1	-5.44%

SMILES	hERG current change (%, negative = inhibition) at 1uM
COC(=O)c1sccc1NC(=O)c1ccc(C(C)C)cc1	15.8%
Cc1csc(SCC(=O)Nc2ccc3c(c2)OCCO3)n1	16%
O=c1[nH]c(Cc2ccc(Cl)cc2)nc2ccccc12	13.9%
COc1ccc(CN(C)S(=O)(=O)c2c(C)noc2C)cc1OC	14.2%
Cc1ccccc1-n1c(C)nc2ccccc2c1=O	5.04%
COc1ccccc1-n1ccnc(SCC(=O)NCCc2ccccc2)c1=O	14.1%
Cc1ccc(N2CC(C(=O)NCc3n[nH]c(=O)c4ccccc34)CC2=O)cc1 (centres unmarked)	-8.02%
COc1ccc(-c2oc3ncnc(NCCN4CCOCC4)c3c2-c2ccc(OC)cc2)cc1	9.03%
COc1ccc(-c2noc3c2-c2nc(C4CCCCC4)sc2CC3)cc1	6.93%
COc1ccc(-c2nc3n(n2)C(c2cccnc2)C(C(N)=O)=C(C)N3)cc1 (centres unmarked)	3.69%
CCc1cc2cccc(C)c2nc1SCC(=O)Nc1nonc1C	0.701%
O=[N+]([O-])c1ccc(Cl)cc1NCCCN1CCOCC1	3.62%
COc1cccc(NC(=O)c2nn(C)c(C(=O)Nc3cccc(OC)c3)c2[N+](=O)[O-])c1	11.5%
O=C(COc1cc(F)ccc1[N+](=O)[O-])Nc1ccc(N2CCOCC2)cc1	11.6%
CCC(C)(C)NC(=O)C(c1cccc(OC)c1)N(C(=O)c1ccn[nH]1)c1cccc(OC)c1 (centres unmarked)	7.27%
O=C(CSc1nnc(COc2ccc(Cl)cc2)o1)N1CCOCC1	2.14%
O=C(NC1CCCCCCC1)c1ccc(CNc2c(N3CCOCC3)c(=O)c2=O)cc1	9.8%
C=CCOc1ccc(CNC(C)(C)CO)cc1OC.Cl	15%
Cc1ccc(CNC(=O)CS(=O)Cc2nc(-c3ccccc3F)oc2C)cc1 (centres unmarked)	22%
Cc1cccc(NC(=O)CSc2ncnc3sc(C)c(C)c23)n1	3.7%
